Reference: PubChem BioAssay AID1508642 (National Center for Advancing Translational Sciences (NCATS), 2021)
Screen size: about 43,000 compounds; about 200 (0.47%) were called active. About 12% were inconclusive and are not listed. Calls come from the whole dose curve; as a rule, active = well fitted cell-killing curve with a large enough effect; inconclusive = small, poorly fitted or top-dose-only effect, or effect the other way; inactive = flat fitted curve, though single readings scatter. The list shows a part of the results.

assay: Cell viability qHTS assay in S16 Pmp22-F2sN cells; settings: S16 Pmp22-F2sN Schwann cells (luciferase reporters placed in the Pmp22 gene) viability, CellTiter-Glo, 24 h; series mostly up to 57.5 µM; activity change, negative = cytotoxicity: at the top concentration; note: nearly all actives have a fitted effect of over 65% in size
Outline: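 Seed 500-1,000 S16 Pmp22-F2sN cells per well in phenol-red-free DMEM with 10% heat-inactivated FBS; pin-add 23 nL compound; incubate 24 h at 37C; add CellTiter-Glo, wait 15 min protected from light; read luminescence.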
% is set by controls: 0 for no effect and ±100 for the full control effect.

Row | Structure (SMILES) | activity change, negative = cytotoxicity
1 | COC(=O)c1c(NC(=O)CCCOc2ccc(C)cc2)sc2c1C(C(=O)OC)CC2 (stereo not given) | inactive: 20%
2 | CCc1cccc(CC)c1NC(=O)c1cc(S(=O)(=O)N2CCc3ccccc32)cn1C | inactive: 7.5%
3 | Cc1ccc(CN2CCCn3nc(C(=O)NCCN(C)C)cc3C2=O)cc1 | inactive: -3.82%
4 | CCOC(=O)c1c(C)[nH]c(C)c1S(=O)(=O)N1CCC(C(=O)NCc2ccccc2)CC1 | inactive: -28.6%
5 | Cc1ccc(C)c(OCCSc2nc3ccccc3n2CC(=O)N2CCOCC2)c1 | inactive: 19.9%
6 | Cn1nc(-c2ccc(OCC(=O)Nc3ccccc3)cc2)c2ccccc2c1=O | inactive: -2.45%
7 | Cc1ccc(S(=O)(=O)N2CCCC(c3nc4c(nnn4Cc4ccc(OC(F)(F)F)cc4)c(=O)[nH]3)C2)cc1 (stereo not given) | inactive: -13%
8 | CCCCNc1nc(Oc2ccc(=O)n(-c3ccccc3)n2)nc(N(C)C)n1 | inactive: -5.16%
9 | COc1ccc(-n2ncc(C(=O)N3CCN(c4ccccn4)CC3)c2C2CCN(C(=O)OC(C)(C)C)CC2)cc1 | inactive: 1.22%
10 | COCCNc1nc(NCc2ccccc2OC)c2cnn(C)c2n1 | inactive: -3.08%
11 | CCC(C)NC(=O)c1ccc2c(c1)N(Cc1cccc(Cl)c1)C(=O)c1ccccc1S2=O (stereo not given) | inactive: -9.39%
12 | COCCNC(=O)c1c(NC(=O)Cc2coc3cc(C)ccc23)sc2c1CCCC2 | inactive: -0.325%
13 | CCOC(=O)c1cn(CC(=O)Nc2cccc(Cl)c2C)nn1 | inactive: 7.83%
14 | O=C(CN(c1cccc(Br)c1)S(=O)(=O)c1ccccc1)N1CCc2ccccc2C1 | inactive: -10.8%
15 | COc1ccc(N2CCN(c3nc(-c4ccccc4F)nc4ccccc34)CC2)cc1 | inactive: -1.56%
16 | CCOc1ccccc1NC(=O)C(NS(=O)(=O)c1cccc2nsnc12)c1ccccc1 (stereo not given) | inactive: 13.6%
17 | Cc1nnc(N2CCN(c3ccccc3F)CC2)c2c1nnn2Cc1ccc(F)cc1 | inactive: 5.24%
18 | CN(C(=O)c1nn(C)c2c1COc1ccccc1-2)c1cccc(C(F)(F)F)c1 | inactive: -8.41%
19 | CCOC(=O)Cn1c(=O)cc(-c2ccccc2)c2c(C)nn(C)c21 | inactive: 14.2%
20 | CCC(C)NC(=O)Cn1c(=O)n(-c2ccc(C)cc2)c(=O)c2ccccc21 (stereo not given) | inactive: 4.32%
21 | Cc1nc(-c2ccccc2)sc1-c1ccc(SCC(=O)Nc2ccc(F)cc2F)nn1 | inactive: 15.4%
22 | Cc1oc2ncnc(N3CCCCC3)c2c1C(=O)NCC1CCN(Cc2ccc(F)cc2)CC1 | inactive: -26.4%
23 | CCc1ccccc1N(CC)C(=O)c1cc2c(s1)-c1ccccc1OC2 | inactive: 1.89%
24 | CCc1ccc(-n2nc(CO)c(C(=O)NCc3ccccn3)n2)cc1 | inactive: -10.9%

Row | Structure (SMILES) | activity change, negative = cytotoxicity
25 | Cc1ccccc1CSc1nc2nc(C)c(Cc3ccccc3)c(C)n2n1 | inactive: -9.66%
26 | COc1ccc(OC)c(CCNC(=O)c2ccc(CS(=O)Cc3cccc(Cl)c3)o2)c1 (stereo not given) | inactive: -0.0385%
27 | O=C(OCc1ccccc1Cl)c1ccc(-c2nnn(Cc3ccccc3)n2)cc1 | inactive: 17%
28 | CC(C)Oc1ccc(CNC(=O)c2ccc(NC(=O)c3nsc4ccccc34)cc2)cc1 | inactive: -18.8%
29 | O=C(Nc1ccc(NC(=O)c2cccs2)cc1)c1ccc(Br)cc1 | inactive: -1.65%
30 | CC(C)(C)C(=O)Nc1ccc2nc(SCC(=O)N3CCCC3)sc2c1 | inactive: 11.2%
31 | Cc1ccc(C)c(NC(=O)C(=O)NCCc2csc(-c3ccc(C(F)(F)F)cc3)n2)c1 | inactive: 2.54%
32 | CCN(CCCNC(=O)c1cc2cc3cc(C)ccc3nc2s1)c1cccc(C)c1 | inactive: 12.5%
33 | COc1ccc(/C=C(/C#N)c2nc(-c3ccc(-c4ccccc4)cc3)cs2)cc1 | inactive: 22.8%
34 | CCN(C(=O)Cn1ncc2c1-c1cc(C)ccc1OC2)c1cc(Cl)ccc1OC | inactive: -2.69%
35 | CCc1ccccc1NC(=O)CSc1ncc2c(n1)-c1ccccc1N(Cc1ccc(C)cc1)S2(=O)=O | inactive: -3.39%
36 | Cc1nc(-c2ccccc2)sc1CCNC(=O)c1ccco1 | inactive: 8.95%
37 | CCOC(=O)c1ccccc1NS(=O)(=O)c1c(-c2ccc(C)cc2)csc1C(=O)OC | inactive: 0.727%
38 | COc1cccc(CNC(=O)CCc2c(C)c3cc4c(C)c(C)oc4cc3oc2=O)c1 | inactive: 7.62%
39 | Cc1ccc(S(=O)(=O)c2cn(Cc3ccccc3)c3cc(N4CCCC4)c(F)cc3c2=O)cc1C | inactive: -21.6%
40 | COc1ccccc1CNS(=O)(=O)c1c(C)nc2sccn2c1=O | inactive: 0.31%
41 | CCN(Cc1ccccc1)C(=O)CCNS(=O)(=O)c1ccc2c(c1)CC(C)N2C(C)=O (stereo not given) | inactive: -9.06%
42 | CCCOC(=O)CSc1nnc2ccc3ccccc3n12 | inactive: -0.644%
43 | O=C(CSc1nc2ccccc2nc1Cc1ccccc1)Nc1ccc2c(c1)OCO2 | inactive: -3.15%
44 | COc1ccc(NC(=O)c2ccc3c(c2)CCN3S(=O)(=O)c2ccc(C)cc2)cc1Cl | inactive: -0.0965%
45 | CCOC(=O)c1cccc(NC(=O)C(C)n2c(C)c3cnn(-c4ccccc4)c(=O)c3c2C)c1 (stereo not given) | inactive: -18.1%
46 | Cc1c(Cl)cccc1NC(=O)CN1C(=O)COc2ccc(S(=O)(=O)Nc3ccccc3)cc21 | inactive: -0.291%
47 | COc1ccc(Cl)cc1NC(=O)CCc1c(C)nc2c(c1C)c(=O)n(C)c(=O)n2C | inactive: 16.1%
48 | COc1cc(NC(=O)CSc2nc3nc(C)c(Cc4ccc(C)cc4)c(C)n3n2)cc(OC)c1 | inactive: 30%

Row | Structure (SMILES) | activity change, negative = cytotoxicity
49 | CCCSCCCNC(=O)c1ccc(Cn2c(=O)c3cccn3c3cccnc32)cc1 | inactive: -2.15%
50 | Cc1ccc(NC(=O)CN(C)S(=O)(=O)c2ccc3nc(C)sc3c2)c(C)c1 | inactive: -3.54%
51 | CC(C)NS(=O)(=O)c1ccc2nc(NC(=O)c3cncc(Br)c3)sc2c1 | inactive: -3.96%
52 | Cc1ccc(Cn2nnc(C(=O)Nc3ccc(F)c(F)c3)c2N)cc1 | inactive: 2.41%
53 | COc1ccc(S(=O)(=O)N2CCC(n3c(C(F)(F)F)nc4cccnc43)CC2)cc1OC | inactive: -25.3%
54 | COc1ccc(C(=O)CN2C(=O)N(c3ccc(C(C)=O)cc3)S(=O)(=O)c3ccccc32)cc1 | inactive: -16.8%
55 | O=C(CSc1nc(-c2ccccc2)no1)N1CCCCC1 | inactive: -0.116%
56 | CCOC(=O)N1CCc2c(sc3c2c(=O)n(CCc2ccccc2)c(=O)n3Cc2ccc(F)cc2)C1 | inactive: 4.26%
57 | Cc1ccccc1-c1nn2c(=O)cc(CN3CCN(C(=O)c4ccc(C(C)(C)C)cc4)CC3)nc2s1 | inactive: -26%
58 | O=C1CC(c2ccccc2)Cc2[nH]c(=O)c(C(=O)Nc3cccc(Cl)c3)cc21 (stereo not given) | inactive: 1.03%
59 | COC(=O)c1ccc(NC(=O)CN2CCN(c3ccc(Cl)cc3)CC2)cc1 | inactive: 3.29%
60 | COc1ccc(NC(=O)c2cn(-c3ccccc3)nc2-c2ccc(C)cc2)cc1 | inactive: 6.38%
61 | CCOc1ccccc1-n1cc2c(c1-c1ccc(OC)cc1)c(=O)n(C)c(=O)n2C | inactive: 4.57%
62 | Cc1ccc(N(C)C(=O)C2CCN(S(=O)(=O)c3ccc4c(c3)CCCN4C(=O)C3CCC3)CC2)cc1 | inactive: 13%
63 | COc1ccccc1N1CCN(c2ncnc3c2cnn3C)CC1 | inactive: -12.9%
64 | CCc1ccc(C(=O)COC(=O)C(Cc2c[nH]c3ccccc23)NC(=O)c2ccc(Br)cc2)cc1 (stereo not given) | inactive: -2.94%
65 | CCOc1ccc(C2c3cc(OCC)c(OCC)cc3CC(=O)N2c2ccc(C(=O)O)cc2)cc1OCC (stereo not given) | inactive: -9.29%
66 | CCOC(=O)c1cccc(NC(=O)C2CCN(S(=O)(=O)c3ccc4c(c3)oc(=O)n4C)CC2)c1 | inactive: -6.08%
67 | COc1ccc(S(=O)(=O)N(CCc2ccccc2)CC(=O)Nc2cccc(OC)c2)cc1 | inactive: 0.173%
68 | CCc1cccc(C)c1NC(=O)Cn1ccn(-c2ccc(F)cc2)c(=O)c1=O | inactive: 2.31%
69 | Cc1nc2ccc(S(=O)(=O)N(C)CC(=O)Nc3ccc(Br)c(C)c3)cc2s1 | inactive: 1.39%
70 | COc1ccc(CCN2C(=O)c3oc4ccc(F)cc4c(=O)c3C2c2ccc(C(C)(C)C)cc2)cc1 (stereo not given) | inactive: 6.57%
71 | CN(Cc1ccccc1)S(=O)(=O)c1ccc(F)c(C(=O)Nc2cccc(Cl)c2Cl)c1 | inactive: -25.2%
72 | Cc1ccc(C(C)(C)C)c(OCC(=O)NCCc2nc3ccccc3[nH]2)c1 | inactive: 5.47%

Row | Structure (SMILES) | activity change, negative = cytotoxicity
73 | Cc1ccccc1NS(=O)(=O)c1ccc(Br)s1 | inactive: 2.73%
74 | COc1ccc(-c2nc3sc(CCNC(=O)c4cc(Cl)ccc4OC)c(C)n3n2)cc1 | inactive: 2.41%
75 | CCOc1ccc(C2=NC(c3cccs3)=Nc3ccc(C(C)C)cc3N2)cc1 | inactive: 8.54%
76 | Cc1cccc(CC2C(=O)Nc3ccccc32)c1 (stereo not given) | inactive: -18.6%
77 | CCOc1ccccc1-n1nnc(-c2nc(-c3ccccc3)no2)c1N | inactive: -0.137%
78 | Cc1c(/C=C(\C#N)C(=O)Nc2cccc(Cl)c2)c2ccccc2n1Cc1ccccc1Cl | inactive: -13.1%
79 | CCN(CC)c1cc2c(cc1F)c(=O)c(S(=O)(=O)c1cc(C)ccc1C)cn2Cc1ccccc1 | inactive: -0.231%
80 | O=C(CCCn1c(=O)c2cccn2c2cccnc21)NCc1ccc(F)cc1 | inactive: 0.67%
81 | CCC1CCCCN1CC(=O)N1CCCc2c1c(=O)oc1ccc(OCc3ccccc3)cc21 (stereo not given) | inactive: -26.9%
82 | COc1cccc2c1cc1c(=O)n(CC(=O)N3CCN(c4cc(Cl)ccc4C)CC3)nc(C)n12 | inactive: 10.6%
83 | CCOC(=O)c1ccc(NC(=O)C2=C(C)Nc3nc(SCc4ccc(Cl)cc4)nn3C2c2ccc(OC)cc2)cc1 (stereo not given) | inactive: -9.97%
84 | COc1ccc(-c2nnc(SCC(=O)Nc3ccc(Cl)cc3)s2)cc1 | inactive: -11.6%
85 | COc1ccc(C(=O)CC2(O)C(=O)N(Cc3ccccc3Cl)c3ccccc32)cc1 (stereo not given) | inactive: -23.9%
86 | COc1ccc(CNC(=O)CCC(=O)N2CCSc3ccccc32)cc1 | inactive: -1.92%
87 | CCOc1ccc(-n2c(C)nc3cc(C(=O)NCCC4=CCCCC4)ccc32)cc1 | inactive: 21.7%
88 | Cc1cc(C)cc(N2CCn3c2nc2c3c(=O)n(Cc3ccc(Cl)cc3)c(=O)n2C)c1 | inactive: 7.63%
89 | CC(C)c1ccc(CNc2nc(-c3ccco3)nn2S(=O)(=O)c2ccc3ccccc3c2)cc1 | inactive: -1.03%
90 | COc1ccc(CNC(=O)Cn2nnc(-c3ccc(S(C)(=O)=O)cc3)n2)cc1 | inactive: -1.12%
91 | O=S(=O)(c1ccccc1)c1nc(-c2ccc(Cl)cc2Cl)oc1N1CCCCCC1 | inactive: -7.9%
92 | COc1cc2c(cc1OC)C(COc1ccc(F)cc1)N(C(=O)Cc1ccc(F)cc1)CC2 (stereo not given) | inactive: -20.4%
93 | CCCCNC(=O)CSc1nc2cc3c(cc2c(=O)n1CCCCCC(=O)NCc1ccc2c(c1)OCO2)OCO3 | inactive: 7.04%
94 | Cc1ccc(-n2c(SCC(=O)NCc3ccc(F)cc3)nc3c([nH]c4ccccc43)c2=O)cc1 | inactive: -14.1%
95 | Cc1ccc2oc3c(c(=O)c2c1)C(c1ccccc1F)N(CCCN1CCOCC1)C3=O (stereo not given) | inactive: 7.29%
